{
  "sequences": {"note": "Protein sequences, listed by entry. Tags and fused reporters are not part of them.", "UniProt P62258": "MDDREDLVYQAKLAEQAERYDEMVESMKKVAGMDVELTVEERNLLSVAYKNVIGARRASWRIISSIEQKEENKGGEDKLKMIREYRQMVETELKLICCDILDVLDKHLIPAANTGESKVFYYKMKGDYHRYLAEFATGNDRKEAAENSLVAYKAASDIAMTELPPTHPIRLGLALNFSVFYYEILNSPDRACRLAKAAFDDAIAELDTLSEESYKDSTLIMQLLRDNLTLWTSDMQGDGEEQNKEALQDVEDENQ"},
  "source": "paper PMC4560099",
  "note": "Results are given in words; binding and its absence hold for the method and conditions named. Binding seen in cells or lysates may run through a third protein. Some results given as binding are weak or reduced against the parent protein; the word gives no strength. Sequences can lack the tags named with a protein.",
  "data": [
    {"biological_target": "GST-14-3-3ε (UniProt P62258)", "experiment": "pull-down; purified GST-14-3-3ε bound on glutathione beads; lysates of lentivirus-transduced cortical neurons (25 mM Tris pH 7.4, 137 mM NaCl, 1% NP40, 10% glycerol, protease and phosphatase inhibitors); beads washed extensively; immunoblot with antibodies against GST or CRTC1; only the target purified", "values": [
      {"binder": "CRTC1^270 (amino acids 1-270 of CRTC1 fused to Dendra2), wild type (domain or fragment, UniProt Q68ED7 1-270, phosphorylated in neurons (sites not determined for this sample)) MATSNNPRKFSEKIALHNQKQAEETAAFEEVMKDLSLTRAARLQLQKSQYLQLGPSRGQYYGGSLPNVNQIGSSSVDLAFQTPFQSSGLDTSRTTRHHGLVDRVYRERGRLGSPHRRPLSVDKHGRQADSCPYGTVYLSPPADTSWRRTNSDSALHQSTMTPSQAESFTGGSQDAHQKRVLLLTVPGMEDTGAETDKTLSKQSWDSKKAGSRPKSCEVPGINIFPSADQENTTALIPATHNTGGSLPDLTNIHFPSPLPTPLDPEEPPFP", "binding": "binds"},
      {"binder": "CRTC1^270 S64A (domain or fragment, UniProt Q68ED7 1-270) MATSNNPRKFSEKIALHNQKQAEETAAFEEVMKDLSLTRAARLQLQKSQYLQLGPSRGQYYGGALPNVNQIGSSSVDLAFQTPFQSSGLDTSRTTRHHGLVDRVYRERGRLGSPHRRPLSVDKHGRQADSCPYGTVYLSPPADTSWRRTNSDSALHQSTMTPSQAESFTGGSQDAHQKRVLLLTVPGMEDTGAETDKTLSKQSWDSKKAGSRPKSCEVPGINIFPSADQENTTALIPATHNTGGSLPDLTNIHFPSPLPTPLDPEEPPFP", "binding": "binds"},
      {"binder": "CRTC1^270 S151A (domain or fragment, UniProt Q68ED7 1-270) MATSNNPRKFSEKIALHNQKQAEETAAFEEVMKDLSLTRAARLQLQKSQYLQLGPSRGQYYGGSLPNVNQIGSSSVDLAFQTPFQSSGLDTSRTTRHHGLVDRVYRERGRLGSPHRRPLSVDKHGRQADSCPYGTVYLSPPADTSWRRTNADSALHQSTMTPSQAESFTGGSQDAHQKRVLLLTVPGMEDTGAETDKTLSKQSWDSKKAGSRPKSCEVPGINIFPSADQENTTALIPATHNTGGSLPDLTNIHFPSPLPTPLDPEEPPFP", "binding": "binds"},
      {"binder": "CRTC1^270 S245A (domain or fragment, UniProt Q68ED7 1-270) MATSNNPRKFSEKIALHNQKQAEETAAFEEVMKDLSLTRAARLQLQKSQYLQLGPSRGQYYGGSLPNVNQIGSSSVDLAFQTPFQSSGLDTSRTTRHHGLVDRVYRERGRLGSPHRRPLSVDKHGRQADSCPYGTVYLSPPADTSWRRTNSDSALHQSTMTPSQAESFTGGSQDAHQKRVLLLTVPGMEDTGAETDKTLSKQSWDSKKAGSRPKSCEVPGINIFPSADQENTTALIPATHNTGGALPDLTNIHFPSPLPTPLDPEEPPFP", "binding": "binds"},
      {"binder": "endogenous CRTC1 (CREB-regulated transcriptional coactivator 1) (protein, UniProt Q157S1 1-630) MATSNNPRKFSEKIALHNQKQAEETAAFEEVMKDLSLTRAARLQLQKSQYLQLGPSRGQYYGGSLPNVNQIGSSSMDLSFQTPFQSSGLDTSRTTRHHGLVDRVYRERGRLGSPHRRPLSVDKHGRQADSCPYGTVYLSPPADTSWRRTNSDSALHQSTMTPTQAESFTGGPQDAHQKRVLLLTVPGMEETGSETDKTLSKQSWDSKKAGSRPKSCEVPGINIFPSADQENTAALIPATHNTGGSLPDLSTIHFPSPLPTPLDPEEPPFPALTSSGSTGSLAHLGVGGTGQGMNTPSSSPQRRPAVVSPLSLSTEARRQQAQQVPPTLSPLSPITQAVAMDALSLEQQLPYAFFTQAGSQQPPPQPQPPPPPPPVSQQQPPPPQVSVGLPQGGPLLPSASLTRGPQLPPLAVTVPSTLPQSPTESPGQPPMGIDVTSAPALQYRTGAGSPATQSPTSPVSNQGFSPGSSPQHTSTLGSVFGDAYYEQQMTARQANALSRQLEQFNMMENAISSSSLYNPGSTLNYSQAAMMGLSGSHGGLQDPQQLGYAGHGGIPNIILTVTGESPPSLSKELSSTLAGVSDVSFDSDHQFPLDELKIDPLTLDGLHMLNDPDMVLADPATEDTFRMDRL", "binding": "binds"},
      {"binder": "CRTC1^270 S64A/S151A/S245A (domain or fragment, UniProt Q68ED7 1-270) MATSNNPRKFSEKIALHNQKQAEETAAFEEVMKDLSLTRAARLQLQKSQYLQLGPSRGQYYGGALPNVNQIGSSSVDLAFQTPFQSSGLDTSRTTRHHGLVDRVYRERGRLGSPHRRPLSVDKHGRQADSCPYGTVYLSPPADTSWRRTNADSALHQSTMTPSQAESFTGGSQDAHQKRVLLLTVPGMEDTGAETDKTLSKQSWDSKKAGSRPKSCEVPGINIFPSADQENTTALIPATHNTGGALPDLTNIHFPSPLPTPLDPEEPPFP", "binding": "no binding"}
    ]},
    {"biological_target": "GST-14-3-3ε (UniProt P62258)", "experiment": "pull-down; as a1, but with phosphatase-treated CRTC1^270 (lysate treated with phosphatase); GST-14-3-3ε on glutathione beads; immunoblot; only the target purified", "values": [
      {"binder": "CRTC1^270 (amino acids 1-270 of CRTC1 fused to Dendra2), wild type (domain or fragment, UniProt Q68ED7 1-270, phosphorylated in neurons (sites not determined for this sample)) MATSNNPRKFSEKIALHNQKQAEETAAFEEVMKDLSLTRAARLQLQKSQYLQLGPSRGQYYGGSLPNVNQIGSSSVDLAFQTPFQSSGLDTSRTTRHHGLVDRVYRERGRLGSPHRRPLSVDKHGRQADSCPYGTVYLSPPADTSWRRTNSDSALHQSTMTPSQAESFTGGSQDAHQKRVLLLTVPGMEDTGAETDKTLSKQSWDSKKAGSRPKSCEVPGINIFPSADQENTTALIPATHNTGGSLPDLTNIHFPSPLPTPLDPEEPPFP", "binding": "no binding (condition: phosphatase-treated CRTC1^270)"}
    ]}
  ]
}
